# Laboratory results from the supplement of paper PMC4967469.
# pIC50: −log10 of the molar value. IC50 is the fitted dose that halves viability relative to control wells, and lower means more sensitive; a fit beyond the top or the lowest dose is shown as a bound at that dose. AUC, from the same fit, is the share of area under the viability curve across the 256-fold dose range; it is 1 without any effect and falls as sensitivity rises. Where the top dose is marked as inferred, it comes from the curve model; the source does not state it.
# Compound: CCCCCCCCCCCC1=C(O)C(=O)C=C(O)C1=O [Embelin]
# Test: Viability of human cancer cell lines after 72 h of drug (GDSC screen)
# Conditions: top dose 32 µM; top dose inferred
# Experimental: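 Human cancer cell lines in 384-well plates, medium with 10% serum, drug for 72 h over a 256-fold dose range (nine 2-fold or five 4-fold steps up to the top dose). Adherent lines were fixed and stained with the nucleic acid dye Syto60, suspension lines read with resazurin; signal relative to control wells, capped at 0 and 100%. One two-parameter sigmoid per drug and line, fitted in a mixed model over all curves with the slope shared within a line.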
Cell Line,AUC,pIC50
"COLO-668 (small cell lung carcinoma, adherent)",0.812,4.77
"COLO-678 (large intestine, semi-adherent)",0.972,< 4.49
"COLO-679 (melanoma, adherent)",0.598,5.42
"COLO-680N (oesophagus, adherent)",0.819,4.64
"COLO-684 (endometrium, suspension)",0.841,4.58
"COLO-783 (melanoma, adherent)",0.965,< 4.49
"COLO-792 (melanoma, adherent)",0.866,4.55
"COLO-800 (melanoma, adherent)",0.837,4.69
"COLO-824 (breast, adherent)",0.864,4.54
"COLO-829 (melanoma, adherent)",0.64,5.23
"COR-L23 (large cell lung carcinoma, adherent)",0.759,4.96
"COR-L88 (small cell lung carcinoma, adherent)",0.801,4.72
"COR-L95 (small cell lung carcinoma, adherent)",0.967,< 4.49
"COR-L105 (lung adenocarcinoma, adherent)",0.754,4.89
"COR-L279 (small cell lung carcinoma, suspension)",0.936,< 4.49
"CP50-MEL-B (melanoma, adherent)",0.857,4.59
"CP66-MEL (melanoma, adherent)",0.62,–
"CPC-N (small cell lung carcinoma, suspension)",0.962,< 4.49
"CS1 (bone, adherent)",0.819,4.68
"CTB-1 (B-cell lymphoma, suspension)",0.876,< 4.49
"CTV-1 (acute myeloid leukaemia, suspension)",0.735,5.10
"CW-2 (large intestine, adherent)",0.988,< 4.49
"Ca9-22 (head and neck, adherent)",0.776,4.92
"Ca-Ski (cervix, adherent)",0.831,4.62
"CaR-1 (large intestine, adherent)",0.859,< 4.49
"Calu-3 (lung adenocarcinoma, adherent)",0.702,5.06

Cell Line,AUC,pIC50
"Calu-6 (lung adenocarcinoma, adherent)",0.652,5.25
"Caov-3 (ovary, adherent)",0.916,< 4.49
"Caov-4 (ovary, adherent)",0.846,< 4.49
"Capan-2 (pancreas, adherent)",0.831,4.58
"ChaGo-K-1 (non-small cell lung carcinoma, adherent)",0.695,5.11
"D-263MG (glioma, adherent)",0.856,< 4.49
"D-283MED (medulloblastoma, adherent)",0.813,4.81
"D-392MG (glioma, adherent)",0.807,4.62
"D-502MG (glioma, adherent)",0.837,< 4.49
"D-542MG (glioma, adherent)",0.554,5.54
"DAN-G (pancreas, adherent)",0.859,4.67
"DB (B-cell lymphoma, suspension)",0.919,< 4.49
"DBTRG-05MG (glioma, adherent)",0.781,4.80
"DEL (lymphoid neoplasm, suspension)",0.776,5.00
"DG-75 (Burkitt lymphoma, suspension)",0.963,< 4.49
"DJM-1 (skin, adherent)",0.739,5.02
"DK-MG (glioma, adherent)",0.963,< 4.49
"DMS-53 (small cell lung carcinoma, adherent)",0.82,4.69
"DMS-79 (small cell lung carcinoma, suspension)",0.978,< 4.49
"DMS-114 (small cell lung carcinoma, adherent)",0.877,< 4.49
"DMS-273 (small cell lung carcinoma, adherent)",0.637,5.31
"DND-41 (T-cell leukaemia, suspension)",0.648,5.31
"DOHH-2 (B-cell lymphoma, suspension)",0.72,5.08
"DOK (head and neck, adherent)",0.761,4.76
"DSH1 (bladder, adherent)",0.9,< 4.49
"DU-145 (prostate, adherent)",0.747,4.95

Cell Line,AUC,pIC50
"DU-4475 (breast, suspension)",0.761,5.02
"Daoy (medulloblastoma, adherent)",0.689,5.20
"Daudi (Burkitt lymphoma, suspension)",0.665,5.27
"Detroit562 (head and neck, adherent)",0.774,4.92
"DoTc2-4510 (cervix, adherent)",0.804,4.82
"EB2 (Burkitt lymphoma, suspension)",0.67,5.25
"EB-3 (Burkitt lymphoma, suspension)",0.803,4.72
"EBC-1 (lung squamous cell carcinoma, adherent)",0.714,5.06
"EC-GI-10 (oesophagus, adherent)",0.966,< 4.49
"ECC10 (stomach, suspension)",0.878,< 4.49
"EFM-19 (breast, adherent)",0.645,5.21
"EFM-192A (breast, adherent)",0.671,5.20
"EFO-21 (ovary, adherent)",0.796,4.64
"EFO-27 (ovary, adherent)",0.806,4.67
"EGI-1 (biliary tract, adherent)",0.841,< 4.49
"EHEB (lymphoid neoplasm, suspension)",0.878,< 4.49
"EJM (lymphoid neoplasm, semi-adherent)",0.959,< 4.49
"EKVX (lung adenocarcinoma, adherent)",0.784,< 4.49
"EM-2 (chronic myeloid leukaemia, suspension)",0.872,< 4.49
"EN (endometrium, adherent)",0.815,4.62
"EPLC-272H (lung squamous cell carcinoma, adherent)",0.877,< 4.49
"ES1 (Ewing sarcoma, adherent)",0.716,5.09
"ES3 (Ewing sarcoma, adherent)",0.776,4.87
"ES4 (Ewing sarcoma, adherent)",0.623,5.34
"ES5 (Ewing sarcoma, adherent)",0.774,4.84
"ES6 (Ewing sarcoma, adherent)",0.75,4.90

Cell Line,AUC,pIC50
"ES7 (Ewing sarcoma, adherent)",0.677,5.20
"ES8 (Ewing sarcoma, adherent)",0.761,4.98
"ES-2 (ovary, adherent)",0.918,< 4.49
"ESS-1 (endometrium, adherent)",0.734,5.07
"ETK-1 (biliary tract, adherent)",0.735,4.98
"EVSA-T (breast, adherent)",0.939,< 4.49
"EW-1 (Ewing sarcoma, semi-adherent)",0.888,4.51
"EW-3 (Ewing sarcoma, adherent)",0.883,< 4.49
"EW-7 (Ewing sarcoma, semi-adherent)",0.831,4.77
"EW-11 (Ewing sarcoma, adherent)",0.887,< 4.49
"EW-13 (Ewing sarcoma, suspension)",0.726,5.02
"EW-16 (Ewing sarcoma, adherent)",0.625,5.35
"EW-18 (Ewing sarcoma, suspension)",0.747,4.96
"EW-24 (Ewing sarcoma, semi-adherent)",0.917,< 4.49
"EoL-1-cell (haematopoietic neoplasm, suspension)",0.664,5.27
"FADU (head and neck, adherent)",0.787,4.87
"FTC-133 (thyroid, adherent)",0.853,4.54
"FU97 (stomach, adherent)",0.698,5.13
"FU-OV-1 (ovary, adherent)",0.779,4.76
"Farage (B-cell lymphoma, suspension)",0.745,5.07
"G-292 Clone A141B1 (osteosarcoma, adherent)",0.86,< 4.49
"G-361 (melanoma, adherent)",0.685,5.19
"G-401 (kidney, adherent)",0.724,5.03
"G-402 (soft tissue, adherent)",0.757,4.84
